Test results published in article PMC4336329 (PLoS ONE, 2015).
Hit rate of the full screen: of about 310,000 compounds, about 14,000 (4.5%) showed an effect of 50% or more. Effects have a minus sign here. The list shows a part of the results.

Biological target: human ether-à-go-go-related gene (hERG) potassium channel (human, UniProt Q12809)
Assay: primary screen, population patch clamp on CHO cells stably expressing hERG
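Further: peak tail current of the secondary pulse compared with the same well before compound.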

Sequence of human ether-à-go-go-related gene (hERG) potassium channel (Q12809 whole entry, looked up): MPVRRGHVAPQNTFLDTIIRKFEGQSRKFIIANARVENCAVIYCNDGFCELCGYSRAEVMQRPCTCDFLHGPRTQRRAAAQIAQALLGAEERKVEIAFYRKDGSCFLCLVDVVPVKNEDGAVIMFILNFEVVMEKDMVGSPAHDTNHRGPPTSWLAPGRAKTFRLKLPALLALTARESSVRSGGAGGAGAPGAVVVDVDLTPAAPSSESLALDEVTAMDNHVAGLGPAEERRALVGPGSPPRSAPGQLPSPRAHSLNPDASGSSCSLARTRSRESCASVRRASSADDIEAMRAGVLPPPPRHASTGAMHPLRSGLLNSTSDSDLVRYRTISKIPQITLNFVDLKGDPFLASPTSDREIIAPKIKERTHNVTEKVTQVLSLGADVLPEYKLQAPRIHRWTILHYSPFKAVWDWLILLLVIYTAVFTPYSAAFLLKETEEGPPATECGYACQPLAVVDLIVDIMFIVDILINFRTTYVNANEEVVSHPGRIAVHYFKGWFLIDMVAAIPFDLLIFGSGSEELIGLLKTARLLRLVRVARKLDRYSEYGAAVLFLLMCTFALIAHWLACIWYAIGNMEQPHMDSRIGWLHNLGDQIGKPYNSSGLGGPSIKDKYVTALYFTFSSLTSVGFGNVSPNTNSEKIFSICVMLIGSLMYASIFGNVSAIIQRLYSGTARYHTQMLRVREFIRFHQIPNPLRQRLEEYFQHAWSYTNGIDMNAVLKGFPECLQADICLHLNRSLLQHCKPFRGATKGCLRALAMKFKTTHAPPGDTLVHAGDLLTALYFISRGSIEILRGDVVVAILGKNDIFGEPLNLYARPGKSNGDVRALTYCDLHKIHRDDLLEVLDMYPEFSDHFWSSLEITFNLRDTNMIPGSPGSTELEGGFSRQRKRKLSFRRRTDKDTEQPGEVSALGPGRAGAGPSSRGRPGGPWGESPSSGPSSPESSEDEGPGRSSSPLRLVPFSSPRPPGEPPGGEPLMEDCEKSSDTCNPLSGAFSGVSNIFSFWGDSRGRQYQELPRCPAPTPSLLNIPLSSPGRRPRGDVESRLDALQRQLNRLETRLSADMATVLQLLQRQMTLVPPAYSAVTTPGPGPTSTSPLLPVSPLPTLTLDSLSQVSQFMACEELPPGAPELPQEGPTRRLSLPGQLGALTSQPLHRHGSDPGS

| SMILES | hERG current change (%, negative = inhibition) at 10uM |
| --- | --- |
| C(=N\Nc1nncc2ccccc12)/c1ccccn1 | -24.7% |
| O=[N+]([O-])c1cc(Oc2cccnc2)cc([N+](=O)[O-])c1 | -25.2% |
| CN(C)CCCN(C(=O)c1cc(-c2cccs2)nc2ccccc12)c1nc2c(F)cccc2s1.Cl | -48.8% |
| COC(=O)C1=CN(c2ccc(OC)cc2)C=C(C(=O)OC)C1c1ccc(C)c([N+](=O)[O-])c1 | 2.74% |
| CC(=O)[C@H]1[C@H]([C@H](O)[C@H](O)CO)O[C@](O)(C(=O)O)C[C@@H]1O | 18.3% |
| COc1cc(CCC(=O)OCC(=O)Nc2ccc(F)c(F)c2F)cc(OC)c1OC | -2.69% |
| CCN(Cc1ccccc1)C(=O)C1CCC(CNc2c(N3CCOCC3)c(=O)c2=O)CC1 (stereo not shown) | 11.5% |
| COC(=O)c1ccc(C)c(NS(=O)(=O)c2ccc(OC)cc2)c1 | -40.9% |
| CCCCN(CCCC)CCCNC(=O)Cn1cc2c(n1)-c1c(oc(C(=O)N3CCCC3)c1C)CC2 | -42.5% |
| Cc1ccc(CN2[C@@H](c3ccccc3)COCCS2(=O)=O)cc1 | -4.74% |
| C=CCN(CC=C)C(=S)NC(=O)/C=C/c1ccccc1 | -13.8% |
| CCOc1ccc(N(CC(=O)NCCc2ccc(OC)cc2)S(C)(=O)=O)cc1 | -0.0301% |
| C/C(=N\NC(=O)CN1CCCCC1)c1cccc([N+](=O)[O-])c1 | -25.9% |
| Cc1ccc(CN2CCN(CC(=O)N3CCc4ccccc4C3)C2=O)cc1 | -50.8% |
| CN(C(=O)CS(=O)(=O)c1cccc(Cl)c1)c1ccccc1 | -2.67% |
| COc1ccc(N2CCN(C(CNC(=O)C(=O)NCCCn3ccnc3)c3ccco3)CC2)cc1 (stereo not shown) | 10% |
| O=C(N/N=C/C(Cl)=C\c1ccccc1)c1cnccn1 | -15.9% |
| O=C(CN(Cc1ccc2c(c1)OCO2)C(=O)CSc1nc2ccccc2o1)NC1CCCCC1 | -16.4% |
| COc1ccc(-c2cccc(C(=O)Nc3cccc(C(=O)O)c3)c2)cc1 | 13.9% |
| O=C(NCc1ccco1)c1ccccc1-c1nc(-c2ccc(F)cc2)no1 | -20.4% |
| O=C(CN(Cc1cccs1)C(=O)CSc1nnc(COc2ccccc2)o1)NC1CCCCC1 | -5.41% |
| Cc1cc(S(=O)(=O)NCCCN2CCOCC2)ccc1Br.Cl | -18.2% |

| SMILES | hERG current change (%, negative = inhibition) at 10uM |
| --- | --- |
| O=C(COc1ccc(Cl)cc1Cl)N1CCN(c2ccccn2)CC1 | -33.3% |
| O=C(Nc1ccc(S(=O)(=O)N2CCCC2)cc1)c1ccccc1 | -7.24% |
| CC(C)CCNC(=O)C(c1ccco1)N(CC1CCCO1)C(=O)Cn1nnc2ccccc21 (stereo not shown) | 11.4% |
| CN1C(=O)[C@H]2[C@@H](/C=C/c3ccccc3)N3C(=O)CN(Cc4ccccc4)C(=O)[C@@]3(C)[C@H]2C1=O | -10.7% |
| O=C(N/N=C/c1cccc(C(F)(F)F)c1)c1cc2c(s1)-c1ccccc1CC2 | 1.25% |
| Cc1ccc(Cl)cc1N1CCN(C(=O)c2ccccc2SCC(=O)N2CCCC2)CC1 | -47.5% |
| CCOC(=O)c1oc2ccc(CNC3CCCCC3)c(Cl)c2c1C.O=C(O)C(=O)O | -38.8% |
| Cc1nc(-c2ccc(Cl)cc2)sc1C1(C)CC(c2c(Cl)cccc2Cl)=NO1 (stereo not shown) | 18.3% |
| Clc1ncc(CN2CCN(Cc3ccccc3)CC2)s1 | -4.52% |
| COc1ccc(CNC(=O)C(=O)NC2CC(C)(C)NC(C)(C)C2)cc1 | 5.29% |
| COc1ccccc1NC(=O)CSc1ccc2nnc(-c3cccnc3)n2n1 | -57% |
| CN(C)CCCN1C(=O)c2cccc3c([N+](=O)[O-])ccc(c23)C1=O | -27.7% |
| O=C(Cc1cn2ccsc2n1)OCc1ccccc1 | -6.37% |
| COc1ccccc1CNC(=S)NCc1ccc(Cl)cc1 | 6.84% |
| O=C(CN1C(=O)COc2ccc(S(=O)(=O)N3CCCC3)cc21)N1CCCC1 | 9.85% |
| CCOP(=O)(OCC)c1nc(-c2ccc(Cl)cc2)oc1NCc1ccccc1 | -10.7% |
| CC(C)CN(C(=O)C(c1ccccc1)c1ccccc1)c1c(N)n(CC(C)C)c(=O)[nH]c1=O | -3.56% |
| CCOC(=O)c1ccc2nc3c(cc2c1)CCS3 | 5.64% |
| O=C(O)c1ccc(-n2nc(-c3ccccc3)c3ccccc3c2=O)cc1 | 25.5% |
| CC1CCCC(n2c(=S)[nH]c3ccccc3c2=O)C1C (stereo not shown) | 6.63% |
| Cc1ccccc1NC(=O)CCS(=O)(=O)c1cccc2nonc12 | 20.8% |
